In the supplement of paper PMC4967469:

What was measured:
Test in all cases: Viability of human cancer cell lines after 72 h of drug (GDSC screen)
AZD7762 = compound: NC(=O)Nc1cc(-c2cccc(F)c2)sc1C(=O)N[C@H]1CCCNC1 [AZD7762]; details: top dose 2 µM
Protocol: (§1)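 Human cancer cell lines in 384-well plates, medium with 10% serum, drug for 72 h over a 256-fold dose range (nine 2-fold or five 4-fold steps up to the top dose). Adherent lines were fixed and stained with the nucleic acid dye Syto60, suspension lines read with resazurin; signal relative to control wells, capped at 0 and 100%. One two-parameter sigmoid per drug and line, fitted in a mixed model over all curves with the slope shared within a line.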

GSK-650394 = compound: O=C(O)c1ccc(-c2c[nH]c3ncc(-c4ccccc4)cc23)cc1C1CCCC1 [GSK-650394]; details: top dose 16 µM; top dose inferred
Protocol: as §1

YK 4-279 = compound: COc1ccc(C(=O)CC2(O)C(=O)Nc3c(Cl)ccc(Cl)c32)cc1 [YK 4-279]; details: top dose 10 µM
Protocol: as §1

NPK76-II-72-1 = compound: COc1cc(C(=O)NC2CCN(C)CC2)ccc1Nc1ncc2c(n1)N(C1CCCC1)C(C)CC(=O)N2C [NPK76-II-72-1]; details: top dose 10.24 µM; top dose inferred
Protocol: as §1

Etoposide = compound: COc1cc([C@@H]2c3cc4c(cc3[C@@H](O[C@@H]3O[C@@H]5CO[C@@H](C)O[C@H]5[C@H](O)[C@H]3O)[C@H]3COC(=O)[C@H]23)OCO4)cc(OC)c1O [Etoposide]; details: top dose 16 µM
Protocol: as §1

Bexarotene = compound: C=C(c1ccc(C(=O)O)cc1)c1cc2c(cc1C)C(C)(C)CCC2(C)C [Bexarotene]; details: top dose 8 µM
Protocol: as §1

BMS-345541 = compound: Cc1ccc2nc(NCCN)c3ncc(C)n3c2c1 [BMS-345541]; details: top dose 16 µM
Protocol: as §1

XAV 939 = compound: Oc1nc(-c2ccc(C(F)(F)F)cc2)nc2c1CSCC2 [XAV 939]; details: top dose 5 µM; top dose inferred
Protocol: as §1

Cell Line	AUC (AZD7762)	IC50 (AZD7762) [µM]	AUC (GSK-650394)	IC50 (GSK-650394) [µM]	AUC (YK 4-279)	IC50 (YK 4-279) [µM]	AUC (NPK76-II-72-1)	IC50 (NPK76-II-72-1) [µM]	AUC (Etoposide)	IC50 (Etoposide) [µM]	AUC (Bexarotene)	IC50 (Bexarotene) [µM]	AUC (BMS-345541)	IC50 (BMS-345541) [µM]	AUC (XAV 939)	IC50 (XAV 939) [µM]
EC-GI-10 (oesophagus, adherent)	0.876	1.96	0.983	> 16	0.654	1.67	0.848	7.52	0.975	> 16	0.987	> 8	0.924	> 16	0.882	> 5
ECC10 (stomach, suspension)	0.82	1.22	0.944	> 16	0.617	1.33	0.945	> 10.2	0.683	3.34	0.975	> 8	0.834	11.1	0.983	> 5
EFM-19 (breast, adherent)	0.838	> 2	0.826	> 16	0.764	5.62	0.896	> 10.2	0.498	0.984	0.863	> 8	0.857	> 16	0.974	> 5
EFM-192A (breast, adherent)	0.959	> 2	0.493	0.956	0.761	3.91	0.914	> 10.2	0.479	0.873	0.901	> 8	0.925	> 16	0.984	> 5
EFO-21 (ovary, adherent)	0.837	> 2	0.939	> 16	0.883	> 10	0.884	> 10.2	0.838	> 16	0.966	> 8	0.784	10.2	0.959	> 5
EFO-27 (ovary, adherent)	0.691	0.496	0.795	9.62	0.789	5.69	0.923	> 10.2	0.678	3.59	0.945	> 8	0.846	> 16	0.976	> 5
EGI-1 (biliary tract, adherent)	0.834	1.9	0.888	> 16	0.843	> 10	0.972	> 10.2	0.62	2.36	0.97	> 8	0.894	> 16	0.92	> 5
EJM (lymphoid neoplasm, semi-adherent)	0.58	0.199	0.983	> 16	0.877	7.37	0.791	3.82	0.846	8.98	0.986	> 8	0.884	12.5	0.987	> 5
EKVX (lung adenocarcinoma, adherent)	0.826	> 2	0.934	> 16	0.963	> 10	0.956	> 10.2	0.946	> 16	0.568	0.95	0.927	> 16	0.811	> 5
EM-2 (chronic myeloid leukaemia, suspension)	0.486	0.114	0.946	> 16	0.676	2.08	0.585	1.13	0.586	1.77	0.893	> 8	0.809	9.69	0.951	> 5
EN (endometrium, adherent)	0.633	0.321	0.928	> 16	0.822	7.97	0.941	> 10.2	0.947	> 16	0.955	> 8	0.89	> 16	0.982	> 5
EPLC-272H (lung squamous cell carcinoma, adherent)	0.559	0.185	0.693	3.76	0.622	1.41	0.667	2	0.603	2	0.98	> 8	0.813	10.1	0.933	> 5
ES5 (Ewing sarcoma, adherent)	0.548	0.173	0.979	> 16	0.66	1.87	0.466	0.509	0.815	10.4	0.982	> 8	0.719	4.65	0.976	> 5
ES7 (Ewing sarcoma, adherent)	0.558	0.181	0.982	> 16	0.616	1.31	0.52	0.725	0.457	0.761	0.886	> 8	0.71	3.99	0.953	> 5
ES-2 (ovary, adherent)	0.422	0.0788	0.987	> 16	0.889	8.97	0.803	4.37	0.898	15.8	0.989	> 8	0.8	6.7	0.99	> 5
ETK-1 (biliary tract, adherent)	0.744	0.697	0.736	5.22	0.64	1.61	0.788	5.17	0.663	3.04	0.938	> 8	0.853	15.2	0.794	2.66
EW-1 (Ewing sarcoma, semi-adherent)	0.599	0.229	0.929	> 16	0.679	1.88	0.433	0.428	0.574	1.57	0.974	> 8	0.815	7.89	0.988	> 5

IC50 is the fitted dose that halves viability relative to control wells, and lower means more sensitive; a limit (>, <) means that the fit lies beyond the doses tested. For AUC the same curve is integrated over the 256-fold range of doses and scaled to a fraction: 1 means no effect, lower means more sensitive. For some assays here: The top dose, if marked as inferred, was calculated from the reported fits.
